Several values for one entry are separate records, joined by “and”; a condition that tells them apart may be missing. Identical values can stand only once. Among all 270,000 compounds or so, about 5,800 (2.1%) were called active. Inconclusive results, whose numbers are uncertain, are shown with a selection of clear calls. The call rests on the fitted dose curve; in most records, active means well fitted inhibition curve with a large enough effect; inconclusive means small, poorly fitted or top-dose-only effect; inactive means flat fitted curve, though single readings scatter. Potencies of inconclusive entries are doubtful fits and often do not repeat.
These compounds were tested against Microtubule-associated protein tau (Homo sapiens) (UniProt P10636) (assay: qHTS for Inhibitors of Tau Fibril Formation, Thioflavin T Binding). Settings: recombinant tau K18 P301L (four-repeat tau fragment), heparin-induced fibrillization, ThT fluorescence; series mostly up to 57.4 µM.
UniProt P10636, sequence (P10636 whole entry, looked up, the tested form may be a part): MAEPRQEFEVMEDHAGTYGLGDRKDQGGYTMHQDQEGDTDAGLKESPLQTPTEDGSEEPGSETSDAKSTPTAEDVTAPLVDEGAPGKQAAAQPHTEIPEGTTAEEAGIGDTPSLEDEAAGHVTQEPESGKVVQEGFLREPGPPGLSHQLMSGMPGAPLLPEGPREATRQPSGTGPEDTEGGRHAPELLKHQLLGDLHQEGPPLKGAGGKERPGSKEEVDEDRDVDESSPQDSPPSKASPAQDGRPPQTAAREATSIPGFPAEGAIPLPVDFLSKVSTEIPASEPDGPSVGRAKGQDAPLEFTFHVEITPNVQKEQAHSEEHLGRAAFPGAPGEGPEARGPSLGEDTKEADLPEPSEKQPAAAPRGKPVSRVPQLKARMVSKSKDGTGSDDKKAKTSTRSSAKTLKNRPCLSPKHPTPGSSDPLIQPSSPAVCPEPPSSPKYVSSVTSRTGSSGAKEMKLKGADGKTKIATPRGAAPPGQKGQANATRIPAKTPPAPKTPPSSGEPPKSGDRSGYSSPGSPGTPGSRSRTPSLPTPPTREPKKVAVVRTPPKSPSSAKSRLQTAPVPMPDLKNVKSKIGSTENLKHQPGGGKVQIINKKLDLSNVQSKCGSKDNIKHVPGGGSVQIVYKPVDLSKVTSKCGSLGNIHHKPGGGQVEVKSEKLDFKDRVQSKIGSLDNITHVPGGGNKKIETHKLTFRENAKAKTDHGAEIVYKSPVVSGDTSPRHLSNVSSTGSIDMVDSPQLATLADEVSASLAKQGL
In short: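 Heparin-induced fibrillization of the P301L-mutant K18 repeat-domain fragment of human tau was followed by ThT binding in quantitative high-throughput format.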
For `CCOc1ccc(NC(=O)CCCn2c(=S)[nH]c3ccsc3c2=O)cc1`, the Potency was inconclusive: 28.2 µM [inhibitor, partial curve, poor fit]. `COc1ccc(-c2cc3ncc(C(C)=O)c(C)n3n2)cc1` was tested, and the Potency was “inactive”. `CN(C(=O)c1cccc(COc2ccc(Cl)cc2Cl)c1)c1ccccc1` was tested, and the Potency was inconclusive: 28.2 µM [inhibitor, single point]. With `Cc1ccc(-c2nc3nc(C)cc(C)n3c2Nc2ccc3c(c2)OCCO3)cc1` the Potency was inconclusive: 2 µM [inhibitor, partial curve]. For `Cc1c(C(=O)Nc2cccc(Cl)c2)c2ccccn2c1CCc1ccncc1`, the Potency was inconclusive: 11.2 µM [inhibitor, partial curve]. For `C/C(=N\NC(=O)c1ccc(C)cc1C)c1ccc2c(c1)Nc1ccccc1S2`, the Potency was active: 14.1 µM. With `Cc1ccc(C(=O)c2cc3c(cc2N)OCCO3)cc1` the Potency was inconclusive: 25.1 µM [inhibitor, partial curve]. In the case of `Cc1[nH]c2ccccc2c1CN1CCC(Cc2ccccc2)CC1`, the Potency is reported as inconclusive: 22.4 µM [inhibitor, partial curve]. For `CCOC(=O)NC[C@H](Cc1ccc(OCCc2nc(-c3ccccc3)oc2C)cc1)N/C(C)=C\C(=O)c1ccc(C(F)(F)F)cc1`, the Potency was “inactive”. In the case of `CC1CCCCC1NC(=S)NC(=O)c1sc2ccccc2c1Cl` (stereo not given), the Potency is reported as “inactive”. With `COc1cc(NC(=O)C2CCN(S(=O)(=O)c3ccc4c(c3)oc(=O)n4C)CC2)cc(OC)c1` the Potency was “inactive”. For `Cc1onc(-c2c(F)cccc2Cl)c1C(=O)NC1=NCCS1`, the Potency was “inactive”. With `CCc1ccc(-c2nc(-c3ccncc3)no2)cc1` the Potency was inconclusive: 17.8 µM [inhibitor, partial curve, poor fit]. In the case of `CCOC(=O)c1sc(=S)n(C)c1NC(=O)c1cccc(Br)c1`, the Potency is reported as inconclusive: 28.2 µM [inhibitor, partial curve]. `COc1ccc(NC(=O)Cn2c(=O)oc3cc(S(=O)(=O)NCc4ccccc4)ccc32)c(OC)c1` was tested, and the Potency was “inactive”. `COc1ccc(C2C(C#N)=C(N)Oc3cc(O)ccc32)cc1OC` (stereo not given) was tested, and the Potency was “inactive”. With `Cc1ccc(-c2cc(-c3ccc4c(c3)OCO4)c(C#N)c(N)n2)o1` the Potency was inconclusive: 3.55 µM [inhibitor, partial curve]. For `COc1ccc(-c2nc(C)c(CCNC(=O)C(=O)Nc3ccccc3C#N)s2)cc1OC`, the Potency was inconclusive: 2.51 µM [inhibitor, full curve]. With `O=C(CSc1nc2ccccc2o1)N/N=C/c1ccccc1` the Potency was “inactive”. In the case of `CNc1ccc(C(=O)c2ccccc2C(=O)O)cc1[N+](=O)[O-]`, the Potency is reported as “inactive”. For `Cc1cc(N=Nc2ccccc2C(=O)O)c(C)c(C)c1O`, the Potency was active: 0.891 µM. `Cc1ccc(-c2noc(-c3ccc(NCc4ccco4)c([N+](=O)[O-])c3)n2)cc1` was tested, and the Potency was “inactive”. With `CCCCCn1c(=O)[nH]c2cc(C(=O)NCc3ccco3)ccc2c1=O` the Potency was inconclusive: 39.8 µM [inhibitor, single point]. For `CCN(CC)c1ccc(Nc2nc(N3CCOCC3)c3ccccc3n2)cc1`, the Potency was inconclusive: 15.8 µM [inhibitor, partial curve]. `O=C(OC(C(=O)NCc1cccs1)c1ccccc1F)c1ccco1` (stereo not given) was tested, and the Potency was “inactive”. With `CCc1ccc(CNC(=O)COc2cc(=O)n(CC)c3ccccc23)cc1` the Potency was “inactive”. For `CC(=O)NC1C(OCc2ccccc2)OC(CO)C(OC(C)=O)C1OC(C)=O` (stereo not given), the Potency was “inactive”. With `O=C(c1ccccc1)N1CCSC1=S` the Potency was inconclusive: 28.2 µM [inhibitor, single point]. For `Clc1ccc2c(c1)[C@H]1OCC[C@H]1[C@@H](c1ccco1)N2`, the Potency was inconclusive: 14.1 µM [inhibitor, partial curve]. For `Nc1nonc1N1CCCCC1`, the Potency was “inactive”. For `Cc1cccc(Nc2cc(C)c3c(O)cccc3n2)c1C`, the Potency was inconclusive: 7.08 µM [inhibitor, partial curve]. `COc1ccc(/C=C(/C#N)C(=O)Nc2cccnc2)cc1OC` was tested, and the Potency was inconclusive: 28.2 µM [inhibitor, single point]. With `COc1ccc(Nc2nnc(-c3cc4c(ccc5ccccc54)oc3=O)s2)cc1` the Potency was active: 5.01 µM. In the case of `Cc1cc(C)c2c(=O)n(CC(=O)N3CCC(N4CCCCC4)CC3)sc2n1`, the Potency is reported as active: 25.1 µM. `COC(=O)[C@@]1(Cc2ccccc2)[C@@H]2C(=CC(=O)[C@H]2CC(=O)C(=O)N(C)C)CN1C(=O)c1ccccc1` was tested, and the Potency was inconclusive: 1.41 µM [inhibitor, partial curve] and inconclusive: 12.6 µM [inhibitor, partial curve]. For `O=C(N/N=C/c1cc([N+](=O)[O-])ccc1O)/C(=C\c1cccs1)NC(=O)c1ccccc1`, the Potency was inconclusive: 17.8 µM [inhibitor, partial curve]. `CCc1ccccc1NC(=O)CSc1nnc([C@@H](N)Cc2ccccc2)o1` was tested, and the Potency was inconclusive: 10 µM [inhibitor, partial curve]. `O=c1[nH]nc(CNc2cccc(C(F)(F)F)c2)c2ccccc12` was tested, and the Potency was inconclusive: 25.1 µM [inhibitor, single point]. `O=C(O)CCn1cc(/C=C\C(=O)c2ccc(Cl)cc2)c(-c2cccc(Br)c2)n1` was tested, and the Potency was inconclusive: 17.8 µM [inhibitor, single point]. `COc1ccc(CCNC(=O)c2cc(C)nc3c2c(C)nn3-c2ccc(C)cc2)cc1OC` was tested, and the Potency was “inactive”. `Nc1[nH]ncc1N=Nc1ccc(Cl)cc1` was tested, and the Potency was active: 10 µM. In the case of `Cc1coc2c(O)cc3c(c12)OC1(N2CCCCC2)C(=O)NCCCC31` (stereo not given), the Potency is reported as active: 15.8 µM. For `Oc1ccc(Br)cc1C=Nc1ccc2c3c(cccc13)CC2`, the Potency was inconclusive: 17.8 µM [inhibitor, partial curve]. `NC(=O)Cc1nc2scc(-c3ccccc3)c2c(=O)[nH]1` was tested, and the Potency was inconclusive: 15.8 µM [inhibitor, partial curve]. `CCC(C)(C)NC(=O)C(c1ccc(F)cc1)N(Cc1ccc(OC)cc1)C(=O)c1cnccn1` (stereo not given) was tested, and the Potency was “inactive”. In the case of `N#Cc1c(/N=C\c2ccc(O)c([N+](=O)[O-])c2)sc2c1CCCC2`, the Potency is reported as inconclusive: 22.4 µM [inhibitor, partial curve, poor fit]. `O=C(N/N=C/c1ccc(N2CCOCC2)o1)c1cccc(C(F)(F)F)c1` was tested, and the Potency was inconclusive: 20 µM [inhibitor, single point]. In the case of `CCNC(=O)c1ccc2nc(CCc3ccccc3)oc2c1`, the Potency is reported as inconclusive: 15.8 µM [inhibitor, single point]. In the case of `CCOc1ccc(NC(=S)NC(=O)c2c(Br)cnn2C)c([N+](=O)[O-])c1`, the Potency is reported as inconclusive: 11.2 µM [inhibitor, partial curve, poor fit]. `O=C1c2ccccc2-c2onc3ccc(NCCCn4ccnc4)c1c23` was tested, and the Potency was active: 11.2 µM. For `COC(=O)c1[nH]c2ccc(Br)cc2c1NC(=O)CN1CCCc2ccccc21`, the Potency was inconclusive: 14.1 µM [inhibitor, partial curve]. `O=C(CCCn1c(=S)[nH]c2cc3c(cc2c1=O)OCO3)N1CCN(c2ccccc2F)CC1` was tested, and the Potency was inconclusive: 0.794 µM [inhibitor, full curve]. For `CC(C)CCN1CC(O)=C(c2nc3ccccc3[nH]2)C1=N`, the Potency was inconclusive: 2.51 µM [inhibitor, partial curve, poor fit]. With `Cc1[nH]c2ccccc2c1/C=N/Nc1nc(Nc2ccc(F)cc2)nc(N2CCOCC2)n1` the Potency was active: 28.2 µM. With `O=C(N/N=C/c1ccc2ncccc2c1)c1ccco1` the Potency was inconclusive: 11.2 µM [inhibitor, partial curve]. In the case of `O=C(Cc1ccc(S(=O)(=O)N2CCCC2)s1)Nc1nc2c(s1)CCCC2`, the Potency is reported as inconclusive: 14.1 µM [inhibitor, single point]. `NC(=S)N/N=C/c1ccc(-c2ccccc2)o1` was tested, and the Potency was inconclusive: 15.8 µM [inhibitor, partial curve]. `COc1cccc(C(=O)CC2(O)C(=O)Nc3ccc(Cl)cc32)c1` (stereo not given) was tested, and the Potency was “inactive”. `CC1=CC(C)(C)[N+](C)(C)c2ccc(C)cc21` was tested, and the Potency was “inactive”. In the case of `CC1=CC2=NC(=O)/C(=C\c3cccn3CCOc3cc(C)ccc3C)C(=N)N2O1`, the Potency is reported as inconclusive: 17.8 µM [inhibitor, single point]. In the case of `CC(=O)c1c(C)oc2c1C(=O)c1ccccc1C2=O`, the Potency is reported as inconclusive: 11.2 µM [inhibitor, partial curve]. In the case of `COc1ccc2nc(N(Cc3cccnc3)C(=O)C3COc4ccccc4O3)sc2c1` (stereo not given), the Potency is reported as inconclusive: 12.6 µM [inhibitor, partial curve]. `CCOc1ccccc1CN1CCc2nc(N3CCN(c4ccccc4F)CC3)ncc2C1` was tested, and the Potency was inconclusive: 4.47 µM [inhibitor, single point]. For `CCC(=O)Nc1ccc(N2CCN(C(=O)c3ccccc3C)CC2)cc1`, the Potency was inconclusive: 14.1 µM [inhibitor, partial curve]. `C=CCNC1=C(Cl)C(=O)N(c2ccccc2Cl)C1=O` was tested, and the Potency was inconclusive: 22.4 µM [inhibitor, partial curve]. For `Cc1cc(C(=O)COC(=O)CCc2nc3ccccc3s2)c(C)n1C`, the Potency was inconclusive: 2.82 µM [inhibitor, partial curve]. With `Cc1ccccc1NC(=S)Nc1cccc2cnccc12` the Potency was inconclusive: 39.8 µM [inhibitor, single point]. `CN1CCN(C(=O)CSc2nc(-c3cccs3)cc(-c3cccs3)c2C#N)CC1` was tested, and the Potency was inconclusive: 31.6 µM [inhibitor, partial curve]. With `O=S(=O)(/N=C(\Sc1ccccc1)c1ccccc1)c1ccc(Cl)cc1` the Potency was inconclusive: 28.2 µM [inhibitor, single point]. With `O=C1NC(=Nc2ccccc2)S/C1=C\c1cccn1-c1ccccc1` the Potency was inconclusive: 8.91 µM [inhibitor, partial curve].

— PubChem BioAssay AID1460 (National Center for Advancing Translational Sciences (NCATS), 2008)
Further: nearly all actives have a fitted effect of over 55% in size.
Potency means the concentration at half of the fitted maximal effect; tags describe the fitted curve by direction and shape.
